According to the supplement of paper PMC8728848:
The other results are listed elsewhere or left out.

How the values were obtained:
Experiment in all cases: glycan array binding signal (z-score within array); higher = stronger binding
Conditions in all cases: glycan notation: IUPAC condensed, linker removed; mutation: N224Q
Gal3S4S(b1-4)GlcNAc = biological target: Gal3S4S(b1-4)GlcNAc
Procedure, shortened: (§1)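 From the Consortium for Functional Glycomics database, 3228 arrays were curated, keeping only those whose protein sequence was available. Binding is given as a within-array Z-score averaged across arrays sharing a protein sequence and across linkers. Negative Z-scores can be read as non-binding.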

Gal3S6S(b1-4)GlcNAc = biological target: Gal3S6S(b1-4)GlcNAc
Procedure, shortened: as §1

Gal3S6S(b1-4)GlcNAc6S = biological target: Gal3S6S(b1-4)GlcNAc6S
Procedure, shortened: as §1

Gal4S(b1-4)GlcNAc = biological target: Gal4S(b1-4)GlcNAc
Procedure, shortened: as §1

Gal4S6S(b1-4)GlcNAc = biological target: Gal4S6S(b1-4)GlcNAc
Procedure, shortened: as §1

Gal6P(b1-4)GlcNAc = biological target: Gal6P(b1-4)GlcNAc
Procedure, shortened: as §1

Gal6S(b1-3)GlcNAc = biological target: Gal6S(b1-3)GlcNAc
Procedure, shortened: as §1

Gal6S(b1-3)GlcNAc6S = biological target: Gal6S(b1-3)GlcNAc6S
Procedure, shortened: as §1

Gal6S(b1-4)Glc = biological target: Gal6S(b1-4)Glc
Procedure, shortened: as §1

Gal6S(b1-4)Glc6S = biological target: Gal6S(b1-4)Glc6S
Procedure, shortened: as §1

Gal6S(b1-4)GlcNAc = biological target: Gal6S(b1-4)GlcNAc
Procedure, shortened: as §1

Gal6S(b1-4)GlcNAc6S = biological target: Gal6S(b1-4)GlcNAc6S
Procedure, shortened: as §1

GalNAc(a1-3)Gal = biological target: GalNAc(a1-3)Gal
Procedure, shortened: as §1

GalNAc(a1-3)GalNAc = biological target: GalNAc(a1-3)GalNAc
Procedure, shortened: as §1

[1] = biological target: GalNAc(a1-3)GalNAc(b1-3)Gal(a1-4)Gal(b1-4)Glc
Procedure, shortened: as §1

[2] = biological target: GalNAc(a1-3)GalNAc(b1-3)Gal(a1-4)Gal(b1-4)GlcNAc
Procedure, shortened: as §1

GalNAc(b1-3)Gal = biological target: GalNAc(b1-3)Gal
Procedure, shortened: as §1

[3] = biological target: GalNAc(b1-3)Gal(a1-4)Gal(b1-4)GlcNAc
Procedure, shortened: as §1

[4] = biological target: GalNAc(b1-3)Gal(a1-4)Gal(b1-4)GlcNAc(b1-3)Gal(b1-4)Glc
Procedure, shortened: as §1

[5] = biological target: GalNAc(b1-3)Gal(a1-6)Gal(b1-4)Glc
Procedure, shortened: as §1

GalNAc(b1-3)GalNAc = biological target: GalNAc(b1-3)GalNAc
Procedure, shortened: as §1

GalNAc(b1-3)GlcNAc = biological target: GalNAc(b1-3)GlcNAc
Procedure, shortened: as §1

GalNAc(b1-4)Gal(b1-4)Glc = biological target: GalNAc(b1-4)Gal(b1-4)Glc
Procedure, shortened: as §1

GalNAc(b1-4)GlcNAc = biological target: GalNAc(b1-4)GlcNAc
Procedure, shortened: as §1

[6] = biological target: GalNAc(b1-4)GlcNAc(b1-2)Man
Procedure, shortened: as §1

[7] = biological target: GalNAc(b1-4)GlcNAc(b1-2)Man(a1-3)[GalNAc(b1-4)GlcNAc(b1-2)Man(a1-6)]Man(b1-4)GlcNAc(b1-4)GlcNAc
Procedure, shortened: as §1

[8] = biological target: GalNAc(b1-4)GlcNAc(b1-3)GalNAc(b1-4)GlcNAc
Procedure, shortened: as §1

GalNAc(b1-4)GlcNAc6S = biological target: GalNAc(b1-4)GlcNAc6S
Procedure, shortened: as §1

GalNAc(b1-6)GalNAc = biological target: GalNAc(b1-6)GalNAc
Procedure, shortened: as §1

GalNAc3S(b1-4)GlcNAc = biological target: GalNAc3S(b1-4)GlcNAc
Procedure, shortened: as §1

GalNAc3S(b1-4)GlcNAc3S = biological target: GalNAc3S(b1-4)GlcNAc3S
Procedure, shortened: as §1

[9] = biological target: GalNAc3S(b1-4)[Fuc(a1-3)]GlcNAc
Procedure, shortened: as §1

GalNAc4S6S(b1-4)GlcNAc = biological target: GalNAc4S6S(b1-4)GlcNAc
Procedure, shortened: as §1

GalNAc6S(b1-4)GlcNAc = biological target: GalNAc6S(b1-4)GlcNAc
Procedure, shortened: as §1

Glc(a1-4)Glc = biological target: Glc(a1-4)Glc
Procedure, shortened: as §1

[10] = biological target: Glc(a1-4)Glc(a1-4)Glc(a1-4)Glc
Procedure, shortened: as §1

Glc(a1-6)Glc(a1-6)Glc = biological target: Glc(a1-6)Glc(a1-6)Glc
Procedure, shortened: as §1

[11] = biological target: Glc(a1-6)Glc(a1-6)Glc(a1-6)Glc
Procedure, shortened: as §1

B1: AAL (Aleuria aurantia) (protein)
chain: MPTEFLYTSKIAAISWAATGGRQQRVYFQDLNGKIREAQRGGDNPWTGGSSQNVIGEAKLFSPLAAVTWKSAQGIQIRVYCVNKDNILSEFVYDGSKWITGQLGSVGVKVGSNSKLAALQWGGSESAPPNIRVYYQKSNGSGSSIHEYVWSGKWTAGASFGSTVPGTGIGATAIGPGRLRIYYQATDNKIREHCWDSNSWYVGGFSASASAGVSIAAISWGSTPQIRVYWQKGREELYEAAYGGSWNTPGQIKDASRPTPSLPDTFIAANSSGNIDISVFFQASGVSLQQWQWISGKGWSIGAVVPTGTPAGW
With B1 the “glycan array binding signal (z-score)” value (Gal3S4S(b1-4)GlcNAc) was -0.328, the “glycan array binding signal (z-score)” value (Gal3S6S(b1-4)GlcNAc) was -0.327 and the “glycan array binding signal (z-score)” value (Gal3S6S(b1-4)GlcNAc6S) was -0.328. The “glycan array binding signal (z-score)” value (Gal4S(b1-4)GlcNAc) was -0.324, the “glycan array binding signal (z-score)” value (Gal4S6S(b1-4)GlcNAc) was -0.327 and the “glycan array binding signal (z-score)” value (Gal6P(b1-4)GlcNAc) was -0.293. The “glycan array binding signal (z-score)” value (Gal6S(b1-3)GlcNAc) was -0.328, the “glycan array binding signal (z-score)” value (Gal6S(b1-3)GlcNAc6S) was -0.323 and the “glycan array binding signal (z-score)” value (Gal6S(b1-4)Glc) was -0.322. The “glycan array binding signal (z-score)” value (Gal6S(b1-4)Glc6S) was -0.323, the “glycan array binding signal (z-score)” value (Gal6S(b1-4)GlcNAc) was -0.324 and the “glycan array binding signal (z-score)” value (Gal6S(b1-4)GlcNAc6S) was -0.331. For the same binder, the “glycan array binding signal (z-score)” value (GalNAc(a1-3)Gal) was -0.325, the “glycan array binding signal (z-score)” value (GalNAc(a1-3)GalNAc) was -0.322 and the “glycan array binding signal (z-score)” value [1] was -0.319. For the same binder, the “glycan array binding signal (z-score)” value [2] was -0.321, the “glycan array binding signal (z-score)” value (GalNAc(b1-3)Gal) was -0.333 and the “glycan array binding signal (z-score)” value [3] was -0.307. The “glycan array binding signal (z-score)” value [4] was -0.317, the “glycan array binding signal (z-score)” value [5] was -0.315 and the “glycan array binding signal (z-score)” value (GalNAc(b1-3)GalNAc) was -0.323. For the same binder, the “glycan array binding signal (z-score)” value (GalNAc(b1-3)GlcNAc) was -0.302, the “glycan array binding signal (z-score)” value (GalNAc(b1-4)Gal(b1-4)Glc) was -0.305 and the “glycan array binding signal (z-score)” value (GalNAc(b1-4)GlcNAc) was -0.318. The “glycan array binding signal (z-score)” value [6] was -0.322, the “glycan array binding signal (z-score)” value [7] was -0.307 and the “glycan array binding signal (z-score)” value [8] was -0.277. For the same binder, the “glycan array binding signal (z-score)” value (GalNAc(b1-4)GlcNAc6S) was -0.326, the “glycan array binding signal (z-score)” value (GalNAc(b1-6)GalNAc) was -0.322 and the “glycan array binding signal (z-score)” value (GalNAc3S(b1-4)GlcNAc) was -0.331. For the same binder, the “glycan array binding signal (z-score)” value (GalNAc3S(b1-4)GlcNAc3S) was -0.321, the “glycan array binding signal (z-score)” value [9] was 0.028 and the “glycan array binding signal (z-score)” value (GalNAc4S6S(b1-4)GlcNAc) was -0.323. For the same binder, the “glycan array binding signal (z-score)” value (GalNAc6S(b1-4)GlcNAc) was -0.335, the “glycan array binding signal (z-score)” value (Glc(a1-4)Glc) was -0.312 and the “glycan array binding signal (z-score)” value [10] was -0.298. For the same binder, the “glycan array binding signal (z-score)” value (Glc(a1-6)Glc(a1-6)Glc) was -0.312 and the “glycan array binding signal (z-score)” value [11] was -0.309.
